Out of some 54,000 compounds screened, about 120 (0.22%) were called active. The inconclusive results got no clear call from the source; some entries with a clear call stand among them for comparison. Calls follow the shape of the dose curve; as a rule, active = well fitted inhibition curve with a large enough effect; inconclusive = small, poorly fitted or top-dose-only effect, or effect the other way; inactive = flat fitted curve, though single readings scatter. Potencies of inconclusive entries are left out as doubtful fits.
target: Fumarate hydratase, mitochondrial (Homo sapiens) (UniProt P07954); assay: Identification of activators of human fumarate hydratase by quantitative high-throughput screening; details: FH coupled MDH/diaphorase resazurin fluorescence, 15 min; activity change, negative = inhibition: at 79.9 µM (top of the series); also: the screen sought activators but most active calls are inhibition curves; nearly all actives have a fitted effect of over 45% in size
% is scaled to controls: 0 for no effect and ±100 for the full control effect; potency is read from the fitted curve at half-maximal effect; tags tell the direction and shape of the fitted curve.

UniProt P07954, sequence (P07954 whole entry, looked up): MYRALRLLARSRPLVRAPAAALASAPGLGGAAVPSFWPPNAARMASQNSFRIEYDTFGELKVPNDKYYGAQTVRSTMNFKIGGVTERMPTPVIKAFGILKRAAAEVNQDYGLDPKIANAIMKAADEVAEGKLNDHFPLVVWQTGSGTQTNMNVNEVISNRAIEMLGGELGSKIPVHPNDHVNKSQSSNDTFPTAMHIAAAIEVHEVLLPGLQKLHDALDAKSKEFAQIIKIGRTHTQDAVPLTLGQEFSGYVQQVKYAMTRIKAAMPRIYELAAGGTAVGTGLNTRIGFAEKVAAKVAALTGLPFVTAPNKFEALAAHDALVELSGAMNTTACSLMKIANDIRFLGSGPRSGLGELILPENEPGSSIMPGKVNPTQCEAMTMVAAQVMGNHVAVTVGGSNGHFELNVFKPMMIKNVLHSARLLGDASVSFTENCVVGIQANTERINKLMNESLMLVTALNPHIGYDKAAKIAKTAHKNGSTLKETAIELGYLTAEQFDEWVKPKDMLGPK

Structure (SMILES) | Potency | activity change, negative = inhibition
CCC(Sc1nnc(C)n2c1cc1occc12)C(=O)Nc1ccccc1OC (stereo not drawn) | inconclusive [inhibitor, partial curve] | 
COc1ccccc1OC(C)C(=O)Nc1cccc(-c2nc3ccccc3o2)c1 (stereo not drawn) | inconclusive [inhibitor, partial curve, poor fit] | 
CCn1c(=O)c2cc(C(=O)NCCCN3CCN(C)CC3)sc2c2ccccc21 | inconclusive [inhibitor, partial curve] | 
C=Cc1cc2oc(-c3ccc(O)c(F)c3)nc2cc1O | inconclusive [inhibitor, single point] | 
NS(=O)(=O)c1ccc(Nc2nc(OCC3CCCCC3)c3[nH]cnc3n2)cc1 | inconclusive [inhibitor, partial curve, poor fit] | 
CCCCn1cnc2cc(NCc3ccc(OCC)cc3)ccc21 | inconclusive [inhibitor, partial curve] | 
CC(C)c1ccc(NC(=O)c2cc(S(=O)(=O)N(C)C3CCCCC3)ccc2F)cc1 | inconclusive [inhibitor, full curve] | 
Cc1c(Cl)cccc1NS(=O)(=O)c1ccc(-c2cnc(C3CC3)o2)cc1 | inconclusive [inhibitor, partial curve, poor fit] | 
Cc1[nH]c(C=C2C(=O)Nc3ccc(S(=O)(=O)N(C)c4cccc(Cl)c4)cc32)c(C)c1C(=O)N1CCN(C)CC1 |  | inactive: -4% [at 53.3 µM]
Cc1ccc2c(=O)cc(C(=O)Nc3ccc(S(=O)(=O)Nc4onc(C)c4C)cc3)oc2c1C | inconclusive [inhibitor, partial curve, poor fit] | 
C/C=C/c1ccc2c(c1)[C@@H](C)[C@H](c1ccc(O)cc1)O2 | inconclusive [inhibitor, single point] | 
CSc1nc(Nc2ccc(F)cc2)cc(-c2ccccc2)n1 | inconclusive [inhibitor, single point] | 
CCOC(=O)c1ccc(NC(=O)C(CC)Sc2nc3ccncc3[nH]2)cc1 (stereo not drawn) | inconclusive [inhibitor, partial curve] | 
COc1ccc(Cn2c(C(=O)O)c(CNC3CCCC3)c3ccc(OC)cc32)cc1 |  | inactive: -17.5%
CC1(O)CC(O)C2(O)C=COC(O[C@@H]3O[C@H](CO)[C@@H](O)[C@H](O)[C@H]3O)C12 (stereo partly drawn) |  | inactive: 1.62% [at 53.3 µM]
CCc1ccc2c(c1)NC(c1ccc(C)cc1)=NC(c1cccs1)=N2 | inconclusive [inhibitor, single point] | 
CCCC(NC(=O)/C(C#N)=C/c1cccc(Br)n1)c1ccccc1 (stereo not drawn) |  | inactive: -10%
O=C(Nc1nnc(S(=O)(=O)N2CCOCC2)s1)c1ccccc1F | inconclusive [inhibitor, single point] | 
CCOc1cc(CN2CCN(S(=O)(=O)c3ccc(C)cc3)CC2)ccc1OC |  | inactive: -13.3%

Structure (SMILES) | Potency | activity change, negative = inhibition
CCc1nc(-c2cc(S(=O)(=O)N3CCN(c4ccccc4F)CC3)ccc2OC)no1 | inconclusive [inhibitor, partial curve, poor fit] | 
Cc1cc2c(cc1C)NC(CC(=O)Nc1cccc(Cl)c1)C(=O)N2 (stereo not drawn) |  | inactive: 0.127%
COc1ccccc1C1Nc2c(sc3nc(C)cc(C)c23)C(=O)N1c1ccccc1 (stereo not drawn) | inconclusive [inhibitor, single point] | 
CCC(C)Sc1oc(-c2ccco2)nc1S(=O)(=O)c1ccc(C)cc1 (stereo not drawn) | inconclusive [inhibitor, single point] | 
OCc1cc(C(O)CNCCCCCCOCCCCc2ccccc2)ccc1O (stereo not drawn) | inconclusive [inhibitor, single point] | 
CN1C(=O)N(c2cc(Cl)cc(Cl)c2)C(=O)[C@@]1(C)Cc1ccc(Br)cc1 | inconclusive [inhibitor, partial curve, poor fit] | 
CCc1ccccc1NC(=O)Nc1nnc(N(C)Cc2ccccc2)s1 | inconclusive [inhibitor, partial curve, poor fit] | 
CN(C(=O)c1cn2c(-c3ccc(C(F)(F)F)cc3)cnc2cn1)c1ccc(C#N)cc1 |  | inactive: -0.563%
CCc1ccc(OCc2nc(-c3ccc(OC)c(OC)c3)no2)c(Br)c1 | inconclusive [inhibitor, full curve, poor fit] | 
CC(CCC1(O)OC2CC3C4CC=C5CC(O[C@@H]6O[C@H](CO)[C@@H](O[C@@H]7O[C@H](CO)[C@@H](O)[C@H](O)[C@H]7O)[C@H](O)[C@H]6O[C@@H]6O[C@@H](C)[C@H](O)[C@@H](O)[C@H]6O)CCC5(C)C4CCC3(C)C2C1C)CO[C@@H]1O[C@H](CO)[C@@H](O)[C@H](O)[C@H]1O (stereo partly drawn) |  | inactive: -2.73% [at 20.6 µM]
CCC1Oc2ccc(C)cc2N(CC(=O)NCc2ccc(OC)cc2)C1=O (stereo not drawn) |  | inactive: 2.11%
CCC(=O)O[C@]1(C(=O)CCl)[C@@H](C)C[C@H]2[C@@H]3C[C@H](F)C4=CC(=O)C=C[C@]4(C)[C@@]3(F)[C@@H](O)C[C@@]21C |  | inactive: -7.85%
Cc1ccc(C2=Nc3ccccc3N(CC(=O)Nc3ccccc3F)C(=O)C2)cc1C | inconclusive [inhibitor, partial curve, poor fit] | 
COc1ccc(CNC(=O)c2ccc3nc(CCc4ccccc4)oc3c2)cc1OC | inconclusive [inhibitor, single point] | 
CC(C)Cn1cc(NC(=O)Nc2cccc(C(F)(F)F)c2)c2ccccc2c1=O | inconclusive [activator, single point] | 
CCCNC(=O)c1cnn2c(C)c(Cc3c(C)cc(C)cc3C)c(C)nc12 |  | inactive: -12.6%
Cc1cccc(-n2c(Cc3ccccc3)nnc2SCc2nc(-c3cccs3)no2)c1 | inconclusive [inhibitor, partial curve] | 
CCOC(=O)c1ccc(N2C(=O)c3n[nH]c(-c4ccco4)c3C2c2ccc(O)c(OCC)c2)cc1 (stereo not drawn) | inconclusive [inhibitor, partial curve] | 
C=Cc1ccc(Cn2nc(-c3ccc(C)cc3)ccc2=O)cc1 | inconclusive [inhibitor, partial curve, poor fit] | 

Source: PubChem BioAssay AID1347055 (National Center for Advancing Translational Sciences (NCATS), 2019)
